Experimental data as given in ChEMBL document CHEMBL1157539, “Thousands of chemical starting points for antimalarial lead identification” (Nature, 2010).
Values joined by “and” are separate entries in the source; they are usually repeats but may differ in a detail not shown here. Equal entries are not always repeated. Whole data set: some 13,000 compounds, median “IFI” near 4, cut for the highest 2% near 17. The list shows a part of the results.

Experiment: GSK_TCMDC: Inhibition Frequency Index (IFI). The number of non-kinase HTS assays where a compound showed > 50 % inhibition, expressed as a percentage of the number of such assays in which the compound was tested (-0 is zero)
Type: functional
Compound `O=C(/C=C/c1ccc(Cl)cc1)NCCCCCN1CCCC(C(=O)Nc2cccc(Cl)c2)C1` (stereo unspecified) has an IFI of 7.69%.
Compound `Clc1ccc2c(NN=Cc3cccnc3)ccnc2c1` has an IFI of 1.5%.
Work on `CN1CCN(c2ccc(Nc3nccc(-c4c(-c5cccc(NC(=O)c6c(F)cccc6F)c5)nn5ccccc45)n3)cc2)CC1` yielded an IFI of 9.35%.
With `CCOc1ccc(-c2nc(NC(=O)COc3ccc(OC)cc3)sc2C)cc1` the IFI was 1.75%.
`COc1ccc(CCCCN2C(=O)C(c3ccccc3)(c3ccccc3)N=C2N)cc1` gave an IFI of 7.69%.
For `Cc1c(Cn2nc(Cl)c(N3CCNCC3)cc2=O)cccc1NC(=O)Nc1ccc(-c2ccccc2)cc1`, the IFI was 10.8%.
Compound `COc1ccc(Nc2nc(NC3CCN(Cc4ccccc4)CC3)cc(-c3ccncc3)n2)cc1` has an IFI of 10.3%.
`Clc1ccc(-c2cnc3ccc(NCc4ccncc4)nn23)cc1` gave an IFI of 2.29%.
`COc1ccc(CN2CCC(N3CC(c4ccccc4)(c4ccccc4)OCC3=O)C2)c(O)c1` (stereo unspecified) gave an IFI of 9.23%.
Work on `CCn1c(SCc2ccccc2)nc2c1c(=O)[nH]c(=O)n2C` yielded an IFI of 2.8%.
`COCC(C)n1c(SCC(=O)Nc2cc(C(F)(F)F)ccc2Cl)nc2ccccc2c1=O` (stereo unspecified) gave an IFI of 5%.
Work on `CC(C)c1ccc(N2CCN(CCCCNC(=O)c3ccc(NC(=O)c4cc(Cl)cc(Cl)c4)cc3)CC2)cc1` yielded an IFI of -0%.
Compound `Cc1ccc(C(=O)NC2CCN(CCNC(=O)Nc3cc(C)nc4ccccc34)CC2)cc1` has an IFI of 0.85%.
`CN1CCN(c2ccnc3cc4c(cc23)N(Cc2ccccc2)CC4)CC1` showed an IFI of 0.75%.
`CC1(C)NC(N)=NC(=N)N1OCCCOc1cccc2ccccc12` showed an IFI of 5.63%.
With `COc1ccccc1C1CCN(CCCCNC(=O)c2ccc(/C=C/c3cc(Cl)cc(Cl)c3)cc2)CC1` the IFI was 9.65%.
`CC1CN(c2cnn(Cc3ccc(NC(=O)Nc4ccc(-c5ccccc5)cc4)cc3)c(=O)c2Cl)CC(C)N1` (stereo unspecified) gave an IFI of 7.64%.
With `COc1cc(NC(=O)CCCN2CCN(c3cccc(Cl)c3Cl)CC2)ccc1N1CCN(C(C)C)CC1` the IFI was 12.2%.
For `CCc1cccc(OCCCON2C(=N)N=C(N)NC2(C)C)c1`, the IFI was 3.55%.
`Cc1nc2ccc3nc(NC(=O)c4ccno4)sc3c2s1` showed an IFI of 1.89%.
With `CCC(C)CN1CCN(c2cc(NC(=O)c3cccs3)ccn2)C(C)C1` (stereo unspecified) the IFI was 5.71%.
For `CCn1c(-c2nonc2N)nc2c(-c3cccc(NC(=O)Nc4ccc(Cl)cc4)c3)ncc(OCCCN)c21`, the IFI was 19.3%.
`Cc1cc(O)c(CN2CCN(Cc3cccs3)CC2)cc1C(C)C` showed an IFI of 6%.
With `O=C(Nc1ccc(OC2CCN(Cc3ccccc3)C2)c(Cl)c1)c1ccco1` (stereo unspecified) the IFI was 3.28%.
`COc1ccc2nccc([C@@H](O)CN3CCC(NCc4ccc5nsnc5c4)CC3)c2c1` gave an IFI of -0%.
In the case of `N#Cc1ccc(C(=O)Nc2cc(-c3cccc(O)c3)cc3[nH]ncc23)cc1`, the IFI is reported as 0%.
`CC1CNC(c2ccc(NC(=O)Nc3ccc(C4=NC(C)CN4)cc3)cc2)=N1` (stereo unspecified) gave an IFI of 0.79%.
In the case of `CCCc1cc(NC2CCN(C)CC2)nc(Nc2cccc(OC)c2)n1`, the IFI is reported as 2.94%.
In the case of `Cc1cccc2nc(-c3cccc(-c4ccc(NC(=O)c5cnn6cccnc56)cc4)c3)[nH]c12`, the IFI is reported as 6.54%.
`COc1ccc2ccccc2c1CCCCN1CCN(CC(c2ccc(F)cc2)N2CCC(N3CCCC3)CC2)CC1` (stereo unspecified) showed an IFI of 13.6%.
With `COc1ccc2nccc([C@@H](O)CN3CCC(NCc4[nH]c5ccccc5c4F)CC3)c2c1` the IFI was 5.19%.
`CC(=O)N1N=C(c2ccccc2)Sc2c1nc(-c1ccc(Cl)cc1)n2C(C)=O` showed an IFI of 4.41%.
In the case of `CC(C)C[C@H](NC(=O)c1ccc(F)cc1)C(=O)N[C@H](/C=N/NC(=O)c1ccccc1)CCc1ccccc1`, the IFI is reported as 5.31%.
In the case of `N=C(N)NN=Cc1ccc2c(c1)Cc1ccccc1-2`, the IFI is reported as 5.8%.
Compound `Cc1cccc2nc(-c3cccc(-c4cccc(NC(=O)Nc5cccc(C#N)c5)c4)c3)[nH]c12` has an IFI of 8%.
Work on `COc1ccc(NC(=O)CCNc2cc(C)nc(Nc3ccccc3)n2)cc1` yielded an IFI of 0%.
Work on `Nc1cccc(CNCc2cccc(-c3cccc(-c4nc5cc(F)ccc5[nH]4)c3)c2)c1` yielded an IFI of 8.41%.
`CN(c1ccc(NC(=O)c2ccc(F)cc2)cc1)C1CCN(Cc2cccc(F)c2)C1` (stereo unspecified) showed an IFI of 5.71%.
`CCc1ccc(C2CCN(CCCCNC(=O)c3ccc(-c4ccc(Cl)cc4)cc3)CC2)c(O)c1` gave an IFI of 8.49%.
With `Cc1cnc(C[S+]([O-])c2nc3cc(C(F)(F)F)ccc3[nH]2)cc1OCc1ccccc1` (stereo unspecified) the IFI was 2.94%.
Compound `O=C(/C=C/c1ccc(F)cc1)NC1CCC(CCN2CCCN(c3ccc(C(F)(F)F)cn3)CC2)CC1` (stereo unspecified) has an IFI of 5.11%.
For `Cn1nc2ccc3ccccc3c2nc1=N`, the IFI was 10.3%.
Compound `COc1ccc(NC(=O)c2ccc(NC(=O)c3ccc(Cl)cc3)cc2)cc1N1CCN(C)CC1` has an IFI of 1.79%.
In the case of `CCNc1cc(C(=O)N[C@@H](Cc2ccccc2)[C@H](O)CNC(C)(C)CCCC(C)C)cc(N2CCCC2=O)c1`, the IFI is reported as 2.96%.
With `COc1ccccc1CNC(=O)c1ccc(N2CCN(c3ccncc3)CC2)cn1` the IFI was 9.09%.
For `CCc1c(CCNCCCCCCNCCc2ccc3c(c2C)OCO3)ccc2c1OCO2`, the IFI was 14.1%.
Compound `COc1ccc(CNC(=O)c2cnc3c(O)cccc3c2Nc2cccc(NC(=O)c3ccc(F)cc3)c2)cc1` has an IFI of 6.98%.
`Cc1ccc(N(CCC(=N)N)Cc2ccccc2)cc1` gave an IFI of 4.29%.
With `CN(c1ccccc1C(=O)Nc1ccccc1Oc1ccccc1)S(=O)(=O)c1ccccc1` the IFI was 0%.
For `CCN(CC)CCN(Cc1ccc(-c2ccc(C(F)(F)F)cc2)cc1)C(=O)Cn1c(CCc2c(F)cc(F)cc2F)nc(=O)c2ccccc21`, the IFI was 5.04%.
`O=C(Cc1ccc(NC(=O)c2ccc(O)c(-c3ccc(Cl)c(Cl)c3)c2)cc1)NCCN1CCOCC1` gave an IFI of 0.74%.
`COc1cc(CNCCCCCCNCc2cc(OC)c(OC)c3ccccc23)c2ccccc2c1OC` gave an IFI of 7.41%.
With `CN(C1CCC(NC(=O)/C=C/c2ccccc2)CC1)C1CC2(CCN(C(=O)OC(C)(C)C)CC2)c2ccccc21` (stereo unspecified) the IFI was 3.03%.
For `CCn1ncc(Cl)c1CN(C)S(=O)(=O)c1ccc2ccccc2c1`, the IFI was 11.1%.
In the case of `CCOc1cccc2nc(NCCCNCc3ccc(Cl)c(Cl)c3)cc(NCCCNCc3ccc(Cl)c(Cl)c3)c12`, the IFI is reported as 8.39%.
For `COc1ccc2c(=NN=Cc3ccc(F)cc3)cc(C)[nH]c2c1`, the IFI was 2.26%.
`COCCn1c(SC(C)C(=O)Nc2cc(C(F)(F)F)ccc2Cl)nc2ccccc2c1=O` (stereo unspecified) gave an IFI of 2.08%.
Compound `N=C(/N=C(/NCCCCCCN/C(=N\C(=N)Nc1ccc(Cl)cc1)N1CCCCC1)N1CCCCC1)Nc1ccc(Cl)cc1` has an IFI of 10.9%.
`CCC(C)NCCC(c1ccccc1)c1ccccc1O` (stereo unspecified) gave an IFI of 2.33%.
For `CC(=O)Nc1ccc(CN2Cc3ccc(NC(=O)Nc4ccc(Oc5ccccc5)cc4)cc3C2)s1`, the IFI was 0.67%.
In the case of `COc1cc(NC(=O)N2CCOC(CCN3CCC4(CCc5ccccc54)CC3)(c3ccc(Cl)c(Cl)c3)C2)cc(OC)c1OC` (stereo unspecified), the IFI is reported as 7.53%.
`COc1ccc2c(NN=Cc3ccncc3)ccnc2c1` showed an IFI of 1.46%.
Work on `Cc1ccc(-c2nc(Nc3ccncc3)c3ccccc3n2)s1` yielded an IFI of 0.78%.
Work on `CCc1ccc(C2CCN(CCCCNC(=O)c3ccc(NC(=O)c4ccc(Cl)cc4)cc3)CC2)c(OCCO)c1` yielded an IFI of 5.31%.
`CN(C)c1ccc(-c2ccc(C(=O)NC3CCN(Cc4cccc(C(F)(F)F)c4)CC3)s2)cc1` showed an IFI of 11.1%.
In the case of `CCc1ccc(CN(CCCOc2cccc(CC(=O)NCc3c[nH]cn3)c2)Cc2ccc(-n3ccnc3)cc2)cc1`, the IFI is reported as 8.89%.
`O=C(Cc1ccccc1)NC(c1ccccc1)c1ccc2cccnc2c1O` (stereo unspecified) gave an IFI of 8.62%.
For `CC(C)c1cn2c3c(cc(C(=O)N[C@@H](Cc4ccccc4)[C@H](O)CNC4CCCCC4)cc13)N(C)S(=O)(=O)CC2`, the IFI was 2.94%.
`CCOC(=O)c1nc(-c2cc(Cl)nc(Cl)c2)[nH]c1NC(=S)NCc1ccc(NS(C)(=O)=O)cc1` gave an IFI of 3.88%.
Work on `O=C(/C=C/c1ccc(Cl)c(Cl)c1)NCC(CCCN1CCC(c2c[nH]c3ccccc23)CC1)c1ccccc1` (stereo unspecified) yielded an IFI of 9.35%.
With `COc1ccc2nccc([C@@H](O)CN3CCC(NCc4cc5cccc6c5n(c4=O)CCC6)CC3)c2c1` the IFI was 0.74%.
`CN1CCCC1CCNC(=O)[C@H](CC1CCCCC1)NC(=O)c1ccc(O)c(-c2ccc(Cl)c(Cl)c2)c1` (stereo partly specified) gave an IFI of 5.07%.
`O=C(NCCN1CCCCC1)c1cccc(Nc2nccc(Nc3ccc(Oc4ccccc4)cc3)n2)c1` showed an IFI of 5.07%.
For `COc1ccc2ncc(F)c(CCN3CC(O)C(CNCc4nc5c(cc4Cl)OCC(=O)N5)C3)c2n1` (stereo unspecified), the IFI was 2.88% (2×) and 1.92%.
With `OCCCCCCNc1ccnc2[nH]c3ccc(I)cc3c12` the IFI was 3.76%.
With `CC(O)C1CCCCN1C(=O)c1ccc(-c2ccc(-c3nc4ccccc4[nH]3)s2)cc1` (stereo unspecified) the IFI was 6.73%.
In the case of `CC(=O)Nc1ccc(OCCN(CC(C)C)c2ccc(C(F)(F)F)c(C#N)c2)c(Cl)c1`, the IFI is reported as 0%.
Compound `Cn1nccc1C(=O)NCCNCc1cccc(-c2ccc(-c3nc4cc(C(F)(F)F)ccc4[nH]3)cc2)c1` has an IFI of 14.8%.
Work on `Cc1cccc(NC(=S)NC2CCN(CCCCCNC(=O)/C=C/c3ccc(Cl)c(Cl)c3)CC2)c1` yielded an IFI of 5.67%.
In the case of `Cc1cc(NCCC(=O)Nc2ccccc2)nc(NCCOc2ccccc2)n1`, the IFI is reported as 4.88%.
Work on `Cc1cc(N2CCCC2)nc(Nc2ccc(NC(=O)COc3ccccc3)cc2)n1` yielded an IFI of 22.2%.
For `COc1ccc2c(=O)c3ccc(OC)cc3[nH]c2c1`, the IFI was 0.76%.
Compound `Cc1noc(NC(=O)c2sc3ccccc3c2O)c1C` has an IFI of 2.46%.
Work on `O=C(NCCN1CCOCC1)c1ccc(O)c(-c2cccc(C(F)(F)F)c2)c1` yielded an IFI of 0.75%.
Work on `Cc1nc(C)c(-c2ccc(Oc3cc(Cl)cc(Cl)c3)cc2)c(O)c1Cl` yielded an IFI of 2.27%.
For `Cc1cccn2c(=O)c3cc(C(=O)NCc4cccnc4)c(=N)n(CCc4ccccc4)c3nc12`, the IFI was 2.84%.
For `CN(C)C(=O)c1ccc(CN(Cc2ccc(OC(C)(C)C)cc2)Cc2ccc3c(c2)OCCO3)cc1`, the IFI was 6.32%.
Work on `CCC(O)c1ccc(Br)cc1NC(=O)c1cccc(Cl)c1` (stereo unspecified) yielded an IFI of 4.35%.
In the case of `CCOC(=O)c1c(SCc2cccc(F)c2F)[nH]c2ccccc2c1=O`, the IFI is reported as 2.78%.
`CCc1ccc(-n2cc(C(=O)c3cc(Br)ccc3O)cc(C#N)c2=O)cc1` showed an IFI of 15.9%.
For `CC(C)NCc1ccc(-c2cccc(-c3nc4ccccc4[nH]3)c2)cc1`, the IFI was 3.81%.
